In all, about 33,000 sequences were measured (“E-score (-0.5 to 0.5)”: median about -0.013, highest 2% from about 0.3 on). This is one part of the list.
Each sequence was assayed against T1, Msn1 (UniProt P22148) (assay: PBM E-score (8-mer binding enrichment) (E-score (-0.5 to 0.5)); higher = stronger / more preferred TF binding; most listed sequences are background and not binding sites). Details: protein concentration: 200 nM; construct: GST-full length.
T1 sequence: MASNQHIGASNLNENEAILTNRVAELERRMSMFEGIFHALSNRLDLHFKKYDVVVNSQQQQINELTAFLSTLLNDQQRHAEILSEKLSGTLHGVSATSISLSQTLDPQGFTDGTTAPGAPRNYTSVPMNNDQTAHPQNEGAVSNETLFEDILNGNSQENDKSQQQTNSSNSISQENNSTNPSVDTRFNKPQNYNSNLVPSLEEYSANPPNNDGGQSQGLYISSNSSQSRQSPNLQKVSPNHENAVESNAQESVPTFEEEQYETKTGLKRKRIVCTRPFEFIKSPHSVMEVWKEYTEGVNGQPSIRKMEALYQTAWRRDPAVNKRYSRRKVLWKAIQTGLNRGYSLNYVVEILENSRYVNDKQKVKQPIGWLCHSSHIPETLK
Method in brief: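 Each ungapped eight-base word and its reverse complement, pooled, received an E-score from the Universal PBM Analysis Suite. Underlying scans, normalised with masliner, recorded fluorescent anti-GST bound to GST-tagged yeast transcription factors. These were applied at about 100-200 nM to universal all-10-mer Agilent arrays double-stranded by primer extension.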
ATTGATCG was tested, and the “PBM E-score” value was -0.0367. For CAACGTGA, the “PBM E-score” value was -0.082. For ATGATGCG, the “PBM E-score” value was 0.127. With CCCGAGTC the “PBM E-score” value was 0.0567. In the case of CCGCGCCG, the “PBM E-score” value is reported as 0.0126. In the case of CACACCAC, the “PBM E-score” value is reported as 0.0275. In the case of AATCCTTC, the “PBM E-score” value is reported as -0.0471. With TACGTTCA the “PBM E-score” value was 0.107. GGTCCGAA was tested, and the “PBM E-score” value was 0.128. ACACCAAC was tested, and the “PBM E-score” value was -0.116. For GCGGAACC, the “PBM E-score” value was 0.0238. With ACGCTACA the “PBM E-score” value was -0.132. In the case of TACATATA, the “PBM E-score” value is reported as 0.249. CCATCTTC was tested, and the “PBM E-score” value was 0.117. TCACAGGA was tested, and the “PBM E-score” value was 0.0601. With TGTTGTAA the “PBM E-score” value was 0.0101. In the case of AGACTAGA, the “PBM E-score” value is reported as -0.148. CCTTGCCC was tested, and the “PBM E-score” value was -0.154. With AAAACTTA the “PBM E-score” value was 0.123. In the case of AGCCAAGG, the “PBM E-score” value is reported as -0.024. In the case of ATTTACAA, the “PBM E-score” value is reported as 0.147. For TCCGTCAA, the “PBM E-score” value was 0.078. For ATAACTTG, the “PBM E-score” value was 0.098. For AATTTCAG, the “PBM E-score” value was 0.127. With AATAACCG the “PBM E-score” value was -0.159. For GAAGCGGC, the “PBM E-score” value was -0.0496. AACTAGCC was tested, and the “PBM E-score” value was -0.0783. For GACGTGAA, the “PBM E-score” value was 0.143. AGGGGGGC was tested, and the “PBM E-score” value was -0.452. With ACGGCCCC the “PBM E-score” value was -0.312. ACAGCAAG was tested, and the “PBM E-score” value was 0.0631. CTAGTCGC was tested, and the “PBM E-score” value was -0.121. CAGGAACA was tested, and the “PBM E-score” value was 0.112. In the case of CTAGACAA, the “PBM E-score” value is reported as 0.305. With ACGTGATA the “PBM E-score” value was -0.0675. For AAAAAAGA, the “PBM E-score” value was 0.122. With CTACTCGA the “PBM E-score” value was -0.0361. TCACCGAA was tested, and the “PBM E-score” value was 0.0587. For AATTAGCA, the “PBM E-score” value was 0.0626. ACATAAAC was tested, and the “PBM E-score” value was 0.282. AGCGGACA was tested, and the “PBM E-score” value was 0.359. With AATAAACC the “PBM E-score” value was -0.0182. In the case of ATTAACGC, the “PBM E-score” value is reported as 0.00097. TCGCCAGA was tested, and the “PBM E-score” value was -0.0726. For ACCGAAAG, the “PBM E-score” value was 0.0147. With AGACAGCA the “PBM E-score” value was 0.0324. For CATACTCG, the “PBM E-score” value was 0.0382. With TACTACAA the “PBM E-score” value was 0.268. For AAGTGTTA, the “PBM E-score” value was -0.025. For ATGGGCCA, the “PBM E-score” value was -0.153. With ACACGAGA the “PBM E-score” value was 0.117. CAGTCCAA was tested, and the “PBM E-score” value was -0.176. With AAATGGTT the “PBM E-score” value was 0.158. AATATAAC was tested, and the “PBM E-score” value was 0.122. With CGCCCGAC the “PBM E-score” value was 0.0493. GTAGGATA was tested, and the “PBM E-score” value was -0.0803. For ACGAGAAG, the “PBM E-score” value was -0.15. In the case of CTAGTACC, the “PBM E-score” value is reported as -0.0261. With ATGAAGTC the “PBM E-score” value was -0.0197. With TAAGCATA the “PBM E-score” value was 0.021. AATCCACG was tested, and the “PBM E-score” value was 0.0424. With TGTTCTAA the “PBM E-score” value was 0.259. For AACGGGAC, the “PBM E-score” value was 0.182. CACCCCGA was tested, and the “PBM E-score” value was -0.105. With ATCCTCGC the “PBM E-score” value was -0.292. CGCGCGCA was tested, and the “PBM E-score” value was 0.131. For GCACGTCC, the “PBM E-score” value was 0.181. With ACCCGGGC the “PBM E-score” value was -0.0373. For ATAAGCAG, the “PBM E-score” value was -0.0568. For CCTAGAGG, the “PBM E-score” value was -0.0777. With AAGTTACT the “PBM E-score” value was 0.0189. In the case of GTTGACCA, the “PBM E-score” value is reported as -0.122. With CGTACGGA the “PBM E-score” value was 0.138. In the case of ACTATACC, the “PBM E-score” value is reported as 0.0929. In the case of TCAATACA, the “PBM E-score” value is reported as 0.117. In the case of GTGTGCTA, the “PBM E-score” value is reported as -0.135. With ATAACACC the “PBM E-score” value was 0.152. With AATGAAAG the “PBM E-score” value was -0.0355. AAGAGTCA was tested, and the “PBM E-score” value was 0.128. With AGCGAGTG the “PBM E-score” value was -0.0483. With AGCCGAGC the “PBM E-score” value was -0.00764. With CATGCGTC the “PBM E-score” value was 0.0631. With ATATCTCG the “PBM E-score” value was 0.0554. With CGGTATGA the “PBM E-score” value was 0.105. With GAGCGTCA the “PBM E-score” value was -0.094. In the case of GAGCGAAC, the “PBM E-score” value is reported as -0.14. For GGTGTCTA, the “PBM E-score” value was 0.0447. In the case of AGGGTAGC, the “PBM E-score” value is reported as -0.267. GGGTGAAA was tested, and the “PBM E-score” value was 0.107. With AGATTAAG the “PBM E-score” value was 0.0729. In the case of AGTCGACG, the “PBM E-score” value is reported as 0.176. For AGAGCACC, the “PBM E-score” value was -0.348. In the case of ATTAACTC, the “PBM E-score” value is reported as 0.234. GCCGTGAA was tested, and the “PBM E-score” value was 0.0234. In the case of TGGCGCAA, the “PBM E-score” value is reported as -0.198. For ATCAATCA, the “PBM E-score” value was 0.0687. In the case of CGGCTGAA, the “PBM E-score” value is reported as -0.0794. For CACATTGG, the “PBM E-score” value was -0.0202. GCAAGACC was tested, and the “PBM E-score” value was -0.124. CCTTCGGC was tested, and the “PBM E-score” value was -0.157. In the case of TAGGTTGA, the “PBM E-score” value is reported as 0.0241. For ATCTGGAG, the “PBM E-score” value was -0.145. In the case of CCGTGTGC, the “PBM E-score” value is reported as -0.119. For GGACAGCC, the “PBM E-score” value was 0.0355. With GGCCGACA the “PBM E-score” value was -0.0491. CGCAGCCC was tested, and the “PBM E-score” value was -0.0555. For GCGCTAGC, the “PBM E-score” value was -0.0831. For AACCCTCA, the “PBM E-score” value was -0.0231. CGGCTTCC was tested, and the “PBM E-score” value was -0.237. AGCGGCCG was tested, and the “PBM E-score” value was 0.0864. In the case of AGGCTGCA, the “PBM E-score” value is reported as -0.00397. With ACTGAACT the “PBM E-score” value was 0.0175. For GACCTATA, the “PBM E-score” value was 0.226. In the case of GGGAGAAA, the “PBM E-score” value is reported as -0.0931. For GTGTATTA, the “PBM E-score” value was 0.227. For CAGGTTGC, the “PBM E-score” value was 0.0156. In the case of CCGGCTAG, the “PBM E-score” value is reported as -0.141. In the case of GGCCACCC, the “PBM E-score” value is reported as -0.264. For AGTGCACT, the “PBM E-score” value was 0.0224. AAACCGGC was tested, and the “PBM E-score” value was 0.134. With CCTATCAC the “PBM E-score” value was -0.127. With GCTTGCAC the “PBM E-score” value was -0.0955. With AGGAATAT the “PBM E-score” value was 0.16. In the case of ATTAGGCA, the “PBM E-score” value is reported as -0.145. In the case of CGAGACGA, the “PBM E-score” value is reported as -0.0129. With GGCGCCCC the “PBM E-score” value was -0.185. For AGCGCATC, the “PBM E-score” value was -0.114. TGCTGAAA was tested, and the “PBM E-score” value was -0.141. For ATGCCATG, the “PBM E-score” value was 0.0799. For CATCGCGG, the “PBM E-score” value was 0.17. For CTGTCTCC, the “PBM E-score” value was -0.047. For ACGCTCCT, the “PBM E-score” value was -0.113. In the case of TACAGGTA, the “PBM E-score” value is reported as -0.12. With AAATCACT the “PBM E-score” value was -0.004. In the case of GAACATCC, the “PBM E-score” value is reported as 0.162. In the case of CCCATACC, the “PBM E-score” value is reported as -0.237. For AACTAGAT, the “PBM E-score” value was -0.00608. With GACGGCGC the “PBM E-score” value was -0.127. For AGCGCAAA, the “PBM E-score” value was 0.0365. GGAAAAAC was tested, and the “PBM E-score” value was 0.124. In the case of GTGCTAGA, the “PBM E-score” value is reported as 0.056. For GCAGTGAC, the “PBM E-score” value was -0.0976. In the case of GGCATTCA, the “PBM E-score” value is reported as -0.178. In the case of ACGAAGCC, the “PBM E-score” value is reported as 0.0406. In the case of GACCACGA, the “PBM E-score” value is reported as -0.0658. ATGACGTG was tested, and the “PBM E-score” value was -0.0956. CACGCGTA was tested, and the “PBM E-score” value was 0.0651. For AATGCTGC, the “PBM E-score” value was -0.15. CTGTACCA was tested, and the “PBM E-score” value was -0.0839. In the case of ACACTAAG, the “PBM E-score” value is reported as -0.0306. In the case of TCTATGCA, the “PBM E-score” value is reported as 0.0382. With AAGTGTGA the “PBM E-score” value was -0.0471. With GCCACGCA the “PBM E-score” value was -0.207. With ATCTGGAA the “PBM E-score” value was -0.0683. For CAAGGGGG, the “PBM E-score” value was -0.253. With CCGTACAC the “PBM E-score” value was 0.0554. For ATAGTAAT, the “PBM E-score” value was 0.0913. For AGACCAGG, the “PBM E-score” value was -0.179. AGTTACAA was tested, and the “PBM E-score” value was -0.0109. For CGTCCTAC, the “PBM E-score” value was 0.157. With TCCTTACA the “PBM E-score” value was 0.0543. With CATGTCGA the “PBM E-score” value was 0.139. TAATTTGA was tested, and the “PBM E-score” value was -0.0805. TACTTATA was tested, and the “PBM E-score” value was 0.127. For AAAGATCT, the “PBM E-score” value was -0.0783. In the case of AAACCTTT, the “PBM E-score” value is reported as -0.147. With ATCTCGCC the “PBM E-score” value was -0.165. For TCCGGCCA, the “PBM E-score” value was 0.00555. In the case of ATACGTTG, the “PBM E-score” value is reported as -0.174. With CGCATCAC the “PBM E-score” value was -0.1. TATAGCCA was tested, and the “PBM E-score” value was 0.0211. In the case of CGGCGGCA, the “PBM E-score” value is reported as -0.105.
